# Reference: paper PMC6919601, “Identification of Plasmodium dipeptidyl aminopeptidase allosteric inhibitors by high throughput screening” (PLoS ONE, 2019)
# The whole screen tested about 110,000 compounds, of which about 230 (0.21%) showed an effect of 50% or more. The list shows a part of the results.
# Biological target: DPAP1 (Plasmodium falciparum, UniProt Q8IIJ9)
# Experiment: primary screen, percent inhibition; read by cleavage of a fluorogenic dipeptide substrate; higher = more effect of the substance
# Parameters: species or system P. falciparum D10 trophozoite lysates; single well
# 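Note: 30 min substrate incubation versus DMSO and 10 µM JCP410 controls.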
# Chain of DPAP1 (Q8IIJ9 whole entry, looked up): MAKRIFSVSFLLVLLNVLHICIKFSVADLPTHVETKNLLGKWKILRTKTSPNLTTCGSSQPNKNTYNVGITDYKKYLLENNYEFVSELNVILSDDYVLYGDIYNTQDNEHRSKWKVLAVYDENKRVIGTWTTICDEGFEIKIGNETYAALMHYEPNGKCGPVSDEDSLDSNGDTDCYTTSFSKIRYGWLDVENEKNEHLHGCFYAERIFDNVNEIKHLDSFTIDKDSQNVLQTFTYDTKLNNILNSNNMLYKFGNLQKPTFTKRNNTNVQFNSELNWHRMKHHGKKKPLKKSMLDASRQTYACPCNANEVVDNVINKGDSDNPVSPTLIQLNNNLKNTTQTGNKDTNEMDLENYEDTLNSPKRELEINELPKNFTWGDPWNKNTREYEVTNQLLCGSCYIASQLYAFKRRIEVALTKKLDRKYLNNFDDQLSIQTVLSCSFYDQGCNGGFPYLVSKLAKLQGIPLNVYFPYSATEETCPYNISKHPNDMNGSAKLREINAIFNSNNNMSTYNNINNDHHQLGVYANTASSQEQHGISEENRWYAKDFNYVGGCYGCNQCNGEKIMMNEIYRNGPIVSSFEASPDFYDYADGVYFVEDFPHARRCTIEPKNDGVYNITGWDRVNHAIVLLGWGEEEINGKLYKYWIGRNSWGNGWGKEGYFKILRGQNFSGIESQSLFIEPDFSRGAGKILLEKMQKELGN
row,SMILES,% Inhibition @ 10 uM
1,COc1ccc2ccccc2c1/C=C(\C#N)c1ccccc1,-2.7%
2,O=C(Nc1cc(C(F)(F)F)ccc1Cl)c1ccc([N+](=O)[O-])cc1Cl,-0.636%
3,Fc1ccc(CCNCc2ccco2)cc1,1.83%
4,N#CC1(NC(=O)[C@H](Cc2c(F)cccc2F)NC(=O)c2ccc(-c3ccccc3Cl)nc2)CCS(=O)(=O)CC1,-0.207%
5,COC(=O)c1ccc(N2Cc3ccc(Br)cc3C2)cc1,3.61%
6,COC(=O)c1nnn(-c2ccc(C)cc2)c1N,-2.79%
7,O=C(Nc1nnc(S(=O)(=O)N2CCOCC2)s1)C12C[C@H]3C[C@@H](C1)C[C@@H](C2)C3,-7.53%
8,C(=C\c1ccccc1)/CN1CCN(Cc2ccncc2)CC1,3.48%
9,CC1CN(C(=O)c2cccc(Cl)c2)CC(C)O1 (centres unmarked),1.43%
10,C1CCCC(NCCN2CCOCC2)CCC1,-2.95%
11,COc1ccc(-c2cccc(=O)o2)cc1,-5.51%
12,COc1ccccc1C(=O)Nc1ccccc1C(C)C,-2.74%
13,CCCNc1nc(-c2ccc(Br)cc2)cs1,-3.61%
14,CC(C)C(C(=O)N1CCCCC1)N1Cc2ccccc2C1=O (centres unmarked),1.34%
15,CCCn1c(O)c(C#N)c(C)c(CN2CCCCC2)c1=O,-0.703%
16,COc1ccc(-c2cc(C)no2)cc1S(=O)(=O)N1CCCN(Cc2ccc(F)cc2)C1,-6.29%
17,O=C(CN(C1CCCCC1)S(=O)(=O)c1ccc(F)cc1)Nc1cccc(Cl)c1,-1.57%
18,CSc1oc(-c2cccs2)nc1S(=O)(=O)c1ccc(Cl)cc1,4.69%
19,Cc1ccccc1CNC(=O)c1cc2cccc3c2n1CCO3,-2.56%
20,O=C(CNc1cccc(Cl)c1)c1ccc(Cl)cc1,-0.414%
21,CCc1ccccc1N(CC(=O)Nc1ccc(OC)cc1)S(=O)(=O)c1ccccc1,3.72%
22,Cc1[nH]nc2c1C(c1cc(Cl)ccc1OCc1cccc(F)c1)C(C#N)=C(N)O2 (centres unmarked),-4.76%
23,O=C(c1ccc(Br)o1)N1CCN(c2ccc3nncn3n2)CC1,-8.58%
24,Cc1cc(=O)n2nc(N3CCCC(C(=O)NCCCOC(C)C)C3)sc2n1 (centres unmarked),-0.281%
25,CC1=C(C(=O)Nc2cc(C)ccn2)C(c2ccccc2Cl)C2=C(O)CCCC2=N1 (centres unmarked),-2.88%
26,O=C1c2cccc3cccc(c23)C(=O)N1C1CCCCC1,2.92%

row,SMILES,% Inhibition @ 10 uM
1,CCCn1c(CCCNC(=O)C2CCCCC2)nc2ccccc21,3.24%
2,CCOCCCNC(=O)c1cnn2c(C)c(Cc3ccccc3Cl)c(C)nc12,7.47%
3,COc1cccc(-c2nc(SCC(=O)Nc3nccs3)c(-c3ccccc3)[nH]2)c1,0.163%
4,COC(=O)/C=c1/sc2nc3ccccc3n2c1=O,0.487%
5,COc1ccc(CC(=O)Nc2nccs2)cc1OC,8.01%
6,N=c1c2c(n(Cc3ccccc3)c3ccccc13)CCC2,-3.26%
7,O=C(c1ccc(Cn2cc(Br)cn2)o1)n1cccn1,-3.13%
8,COc1ccc(C(=O)N2CCCN(C(=O)c3ccc(OC)cc3)CC2)cc1,-3.32%
9,Cc1ccc(OCCCCCCN2CCOCC2)c(C)c1,-2.18%
10,COc1ccc(N/C=C2/C(=O)NC(=O)N(c3ccccc3)C2=O)cc1Cl,2.3%
11,CC(C)(Oc1ccc(Cl)cc1)C(=O)Nc1ccc(F)cc1,-3.92%
12,Cc1ccccc1C(O)c1ccccn1 (centres unmarked),-1.98%
13,CCOc1cc(C#N)c(-n2cccc2)cc1OCC,-0.703%
14,COc1ccc(CCNC(=O)Cc2c(C)c3ccc(O)c(C)c3oc2=O)cc1,-4.39%
15,COC(=O)c1ccc(/C=C2/NC(=O)NC2=O)cc1,1.52%
16,O=c1c2cc3c(=O)n(-c4ccncc4)c(=O)c3cc2c(=O)n1-c1ccncc1,4.8%
17,Cc1ccc2nc(Cl)c3cc(C(=O)N4CCN(c5ncccn5)CC4)sc3c2c1,-5.25%
18,COc1ccc(-c2cc(C(=O)N3CCc4ccccc4C3)no2)cc1,2.65%
19,COc1cc(/C=C2\SC(=O)N(CC(=O)N3CCOCC3)C2=O)ccc1OC(C)C,1.67%
20,NC(=O)C1CCN(C2CC(=O)N(c3ccc(Cl)cc3)C2=O)CC1 (centres unmarked),-0.305%
21,C=CCn1c(=N)n(CCCC)c2ccccc21,-0.231%
22,COc1ccc(-c2[nH]nc3c2C(c2ccc(C(F)(F)F)cc2)C(C#N)=C(N)O3)cc1 (centres unmarked),-0.105%
23,N#CC1C(=O)NC(=O)C([n+]2ccccc2)C1c1ccccc1Cl (centres unmarked),2.51%
24,COc1cccc2c1cc1c(=O)n(CC(=O)N3CCOCC3)nc(C)n12,4.65%
25,COC(=O)C1=C(O)/C(=C/c2cc(C)n(-c3cc(Cl)ccc3Cl)c2C)N=C1C,18.3%
26,O=C(CN(Cc1ccc(Br)cc1)S(=O)(=O)c1ccc(Cl)cc1)N1CCCCC1,-3.45%

row,SMILES,% Inhibition @ 10 uM
1,Cc1ccc(C(=O)NCc2nc(-c3ccccc3)no2)cc1Cl,2.14%
2,CCC(C)(C)NS(=O)(=O)c1cc2nc(O)c(O)nc2cc1C,4.32%
3,Cc1ccc(OCCCCCN2CCCC2)c(C)c1,1.35%
4,CN1CCN(CCCNC(=O)Cn2ncc3c4ccccc4n(Cc4ccccc4)c3c2=O)CC1,0.137%
5,CC(=O)Nc1ccc(Nc2nc(-c3c(C)nc4sccn34)cs2)cc1,-0.744%
6,O=C1NC(c2ccc(Oc3ccccc3)cc2)Oc2ccccc21 (centres unmarked),0.214%
7,CCOc1ccc(CCNS(=O)(=O)c2cc(-c3cc(C)no3)ccc2C)cc1OCC,-3.94%
8,CC1=CC2=NC(C(F)(F)F)(C(F)(F)F)NC(=O)N2C=C1,-7.35%
9,N=C(NOC(=O)c1ccc2ccccc2c1)c1ccncc1,0.343%
10,O=C(Cn1ncc2c3ccccc3nc-2c1O)N1CCN(C(=O)c2ccco2)CC1,10.2%
11,CCOC(=O)c1sc(NC(=O)c2cc(=O)c3cc(Cl)ccc3o2)c(C(=O)OCC)c1C,0.248%
12,N#Cc1cc2c(nc1SCC(=O)NCCc1ccccc1)CCCC2,-3.63%
13,O=C(CN1Cc2ccccc2C1=O)NC1CCN(Cc2ccccc2)CC1,-5.84%
14,CC(=O)NC(=O)c1nnn(-c2ccc(C)cc2)c1NC(C)=O,3.61%
15,CC(=O)N1CCN(c2ccc(NC(=O)c3ccc(-c4ccccc4)cc3)cc2)CC1,5.12%
16,NS(=O)(=O)c1ccc(CC/N=c2/c(-c3ccccc3)c(O)c2=O)cc1,4.36%
17,N#CC1=C(N)Oc2c(ccc3ccccc23)C1c1ccc2ccccc2c1 (centres unmarked),-2.21%
18,CC(C)S(=O)(=O)C1=NSC2=NC(=O)/C(=C\c3ccc(OCC(=O)O)cc3)C(=N)N21,-5.51%
19,COc1ccc(N2CCN(CCC3=C(C)CCCC3(C)C)CC2)cc1,-0.0648%
20,COc1ccccc1CCNCc1cccn1-c1nnc(N2CCN(C3CCCCC3)CC2)s1,1.56%
21,Cc1ccc2c(c1)c(/C=C1/C(=N)N3C=CSC3=NC1=O)c(C)n2Cc1ccc(F)cc1,-1.82%
22,Cn1c2ccccc2c2cnn(CC(=O)N3CCN(C(=O)c4ccco4)CC3)c(=O)c21,-5.49%
23,COc1ccc(S(=O)(=O)N2CC=C(C(=O)NCc3ccccc3OC)CC2)cc1,5.09%
24,CN(C)CC/N=c1/c(-c2ccccc2)c(O)c1=O,-0.539%
25,NC(=O)c1c(NC(=O)c2ccc(OCc3ccccc3)cc2)sc2c1CCC2,0.755%
26,O=C(C1CCN(S(=O)(=O)N2CCC3(CC2)OCCO3)CC1)N1CCc2ccccc2C1,2.18%

row,SMILES,% Inhibition @ 10 uM
1,Cc1cn(CCC(=O)O)c(=O)[nH]c1=O,0.221%
2,COc1ccc(-c2cc3ncc(C(C)=O)c(C)n3n2)cc1,1.52%
3,COc1ccc(C(=O)Nc2ccc(-c3csc(C)n3)cc2)cc1,5.6%
4,Cc1ccc(S(=O)(=O)N(CC(=O)N2CCCCCC2)Cc2ccccc2F)cc1,3.65%
5,CCOC(=O)c1cc(C)n(Cc2ccccc2)c1C,-5.37%
6,C=CCOc1ccc(/C=C2\SC(=O)N(CC(=O)Nc3ccc(C)cc3)C2=O)cc1,-5.4%
7,CC1CCN(C(=O)c2cc3nc(-c4ccco4)cc(C(F)(F)F)n3n2)C(C)C1 (centres unmarked),-3.53%
8,OCc1nc2ccccc2n1CCCCOc1ccccc1,-10.7%
9,Cc1cccc(CCNC(=O)CCNC(=O)Cn2ccc3ccccc3c2=O)c1,-0.631%
10,Cc1ccc(-c2nc(C#N)c(NCCCN3CCOCC3)o2)cc1,-7.04%
11,CC(=O)Nc1ccc(NC(=O)COc2ccc(C)cc2C)cc1,0.795%
12,COCCCNC(=O)Cn1cnc2c1c(=O)n(C)c(=O)n2C,-0.564%
13,CCCNc1ncnc2c1cnn2-c1cccc(C)c1,6.29%
14,Cc1ccccc1C(=O)Nc1nc(-c2nnn(-c3ccc(Cl)cc3)c2C)ns1,-0.858%
15,c1ccc2sc(SCCCCSc3nc4ccccc4s3)nc2c1,-3.55%
16,CCCC(=O)NC(C)c1nc2ccccc2n1Cc1ccc(Cl)cc1 (centres unmarked),1.12%
17,CN1CCC(N2CCC(Cc3ccccc3)CC2)CC1,-1.96%
18,CCCOc1ccc(C(=O)C2=C(O)C(=O)N(CCN3CCOCC3)C2c2ccc(OC)cc2)cc1C (centres unmarked),3.15%
19,COc1ccc(CN2CCN(C3CCCC3)CC2)c(OC)c1,-2.18%
20,COc1ccc(Cl)cc1-c1nnc(S)n1-c1ccccc1,-1.24%
21,O=C(c1ccccc1)N1CCN(CC(O)Cn2ccc3ccccc32)CC1 (centres unmarked),-11.5%
22,O=C(C1CCCN(Cc2cccnc2)C1)N1CCCCCC1 (centres unmarked),5.44%
23,COc1cccc(N(CC(=O)NC2CC3CCC2C3)S(=O)(=O)c2ccc(C)cc2)c1 (centres unmarked),-6.94%
